# Source: the supplement of paper PMC8728848
# Some of the results follow.
# B1: Tamarinin (protein)
# chain: CDDSARAGNIVVYWGQGGSDNSEGSLKEACKSGHYNMIVLQQLIVYDDGRDPDLNLGAHCSDCTKLEEQIKYCQNKDIKILLQIGQVVPTQEDVKDVTKNLSEYLLKNFFSGKSGPLGEVYLNGIDIASVPEGNNLKFDELVEALNDSSTERRIYLSASPLCVYPDYYLNKAIQTEKLDFLFVQFFYQNPCIYTEGNPENLFEAMKTWTKNVPESMIFMALPATPNLDGYIPPRVLNKEILPAVSEASNFAGVMIFDRYFDRFRKYSSKIK
# Experiments:
# Assay in all cases: glycan array binding signal (z-score within array); higher = stronger binding
# Settings in all cases: glycan notation: IUPAC condensed, linker removed
# [1] = target: Gal(b1-4)GlcNAc(b1-2)Man(a1-3)[Gal(b1-4)GlcNAc(b1-2)Man(a1-6)]Man(b1-4)GlcNAc(b1-4)[Fuc(a1-6)]GlcNAc
# Procedure, shortened: (§1)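 From the Consortium for Functional Glycomics database, 3228 arrays were curated, keeping only those whose protein sequence was available. Binding is given as a within-array Z-score averaged across arrays sharing a protein sequence and across linkers. Negative Z-scores can be read as non-binding.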
# [2] = target: Gal(b1-4)GlcNAc(b1-2)Man(a1-3)[Gal(b1-4)GlcNAc(b1-2)Man(a1-6)][Gal(b1-4)GlcNAc(b1-4)]Man(b1-4)GlcNAc(b1-4)[Fuc(a1-6)]GlcNAc
# Procedure, shortened: as §1
# [3] = target: Gal(b1-4)GlcNAc(b1-2)Man(a1-3)[Gal(b1-4)GlcNAc(b1-2)Man(a1-6)][GlcNAc(b1-4)]Man(b1-4)GlcNAc(b1-4)[Fuc(a1-6)]GlcNAc
# Procedure, shortened: as §1
# [4] = target: Gal(b1-4)GlcNAc(b1-2)Man(a1-3)[GlcNAc(b1-2)Man(a1-6)]Man(b1-4)GlcNAc(b1-4)GlcNAc
# Procedure, shortened: as §1
# [5] = target: Gal(b1-4)GlcNAc(b1-2)Man(a1-3)[GlcNAc(b1-4)][Gal(b1-4)GlcNAc(b1-2)Man(a1-6)]Man(b1-4)GlcNAc(b1-4)GlcNAc
# Procedure, shortened: as §1
# [6] = target: Gal(b1-4)GlcNAc(b1-2)Man(a1-3)[Man(a1-6)]Man(b1-4)GlcNAc(b1-4)GlcNAc
# Procedure, shortened: as §1
# [7] = target: Gal(b1-4)GlcNAc(b1-2)Man(a1-6)Man(b1-4)GlcNAc(b1-4)GlcNAc
# Procedure, shortened: as §1
# [8] = target: Gal(b1-4)GlcNAc(b1-2)Man(a1-6)[GlcNAc(b1-2)Man(a1-3)]Man(b1-4)GlcNAc(b1-4)GlcNAc
# Procedure, shortened: as §1
# [9] = target: Gal(b1-4)GlcNAc(b1-2)Man(a1-6)[Man(a1-3)]Man(b1-4)GlcNAc(b1-4)GlcNAc
# Procedure, shortened: as §1
# [10] = target: Gal(b1-4)GlcNAc(b1-2)[Gal(b1-4)GlcNAc(b1-4)]Man(a1-3)[Gal(b1-4)GlcNAc(b1-2)Man(a1-6)]Man(b1-4)GlcNAc(b1-4)GlcNAc
# Procedure, shortened: as §1
# [11] = target: Gal(b1-4)GlcNAc(b1-2)[Gal(b1-4)GlcNAc(b1-4)]Man(a1-3)[Gal(b1-4)GlcNAc(b1-2)[Gal(b1-4)GlcNAc(b1-6)]Man(a1-6)]Man(b1-4)GlcNAc(b1-4)GlcNAc
# Procedure, shortened: as §1
# [12] = target: Gal(b1-4)GlcNAc(b1-2)[Gal(b1-4)GlcNAc(b1-4)]Man(a1-3)[GlcNAc(b1-4)][Gal(b1-4)GlcNAc(b1-2)Man(a1-6)]Man(b1-4)GlcNAc(b1-4)GlcNAc
# Procedure, shortened: as §1
# [13] = target: Gal(b1-4)GlcNAc(b1-2)[Gal(b1-4)GlcNAc(b1-4)]Man(a1-3)[GlcNAc(b1-4)][Gal(b1-4)GlcNAc(b1-2)[Gal(b1-4)GlcNAc(b1-6)]Man(a1-6)]Man(b1-4)GlcNAc(b1-4)GlcNAc
# Procedure, shortened: as §1
# [14] = target: Gal(b1-4)GlcNAc(b1-2)[Gal(b1-4)GlcNAc(b1-6)]Man(a1-6)[Gal(b1-4)GlcNAc(b1-2)Man(a1-3)]Man(b1-4)GlcNAc(b1-4)GlcNAc
# Procedure, shortened: as §1
# [15] = target: Gal(b1-4)GlcNAc(b1-2)[Gal(b1-4)GlcNAc(b1-6)]Man(a1-6)[Gal(b1-4)GlcNAc(b1-2)Man(a1-3)]Man(b1-4)GlcNAc(b1-4)[Fuc(a1-6)]GlcNAc
# Procedure, shortened: as §1
# [16] = target: Gal(b1-4)GlcNAc(b1-2)[Gal(b1-4)GlcNAc(b1-6)]Man(a1-6)[GlcNAc(b1-4)][Gal(b1-4)GlcNAc(b1-2)Man(a1-3)]Man(b1-4)GlcNAc(b1-4)GlcNAc
# Procedure, shortened: as §1
# [17] = target: Gal(b1-4)GlcNAc(b1-2)[Gal(b1-4)GlcNAc(b1-6)]Man(a1-6)[GlcNAc(b1-4)][Gal(b1-4)GlcNAc(b1-2)[Gal(b1-4)GlcNAc(b1-4)]Man(a1-3)]Man(b1-4)GlcNAc(b1-4)[Fuc(a1-6)]GlcNAc
# Procedure, shortened: as §1
# [18] = target: Gal(b1-4)GlcNAc(b1-3)Gal(b1-3)GalNAc
# Procedure, shortened: as §1
# [19] = target: Gal(b1-4)GlcNAc(b1-3)Gal(b1-3)GlcNAc
# Procedure, shortened: as §1
binder,measurement,setting,value
B1,glycan array binding signal (z-score),[1],-0.104
same,glycan array binding signal (z-score),[2],-0.296
same,glycan array binding signal (z-score),[3],-0.692
same,glycan array binding signal (z-score),[4],-0.373
same,glycan array binding signal (z-score),[5],-0.461
same,glycan array binding signal (z-score),[6],-0.282
same,glycan array binding signal (z-score),[7],-0.476
same,glycan array binding signal (z-score),[8],-0.228
same,glycan array binding signal (z-score),[9],-0.504
same,glycan array binding signal (z-score),[10],-0.463
same,glycan array binding signal (z-score),[11],-0.442
same,glycan array binding signal (z-score),[12],-0.122
same,glycan array binding signal (z-score),[13],0.105
same,glycan array binding signal (z-score),[14],-0.226
same,glycan array binding signal (z-score),[15],0.134
same,glycan array binding signal (z-score),[16],-0.438
same,glycan array binding signal (z-score),[17],-0.456
same,glycan array binding signal (z-score),[18],-0.297
same,glycan array binding signal (z-score),[19],-0.424
